Experimental data from US20150071942A1, “COMBINATION THERAPY OF ANTI-MIF ANTIBODIES AND CHEMOTHERAPEUTICS” (Baxter Healthcare SA, priority 2012, published 2015).

How the values were obtained:
redMIF = biological target: T1, redMIF (Homo sapiens, UniProt P14174); experiment: Differential binding of the antibodies to redMIF (ELISA or Biacore); settings: for binding to redMIF: MIF in its reduced state; for binding of recombinant MIF proteins to coated antibody: Biacore 3000, native HBS-EP buffer without addition of ProClin300
T1 sequence (P14174 1-115): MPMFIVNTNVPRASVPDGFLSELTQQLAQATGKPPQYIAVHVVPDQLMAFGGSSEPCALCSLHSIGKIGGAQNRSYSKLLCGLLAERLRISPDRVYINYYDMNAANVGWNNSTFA
Procedure: (§1) The anti-oxMIF antibodies described in this invention are able to discriminate between ox and red MIF, which are generated by mild oxidation or reduction, respectively. The anti-oxMIF antibodies are useful to specifically detect oxMIF. Discrimination between these conformers is assessed by ELISA or surface plasmon resonance. Both techniques can be performed as well known to a person skilled in the art and as described below.
(§2) The antibodies were coated on a CM5 (=carboxymethylated dextran) chip and recombinant MIF protein, pre-incubated with 0.2% Proclin300, were injected. (Proclin300 consists of oxidative isothiazolones that stabilize the oxMIF structure).
(§3) The antibodies of the invention, as defined hereinabove and hereinafter, have the same specificities. They thus also show similar results in the experiments as carried out by the present inventors.

oxMIF = biological target: T2, oxMIF (Homo sapiens, UniProt P14174); experiment: Differential binding of the antibodies to oxMIF (ELISA or Biacore)
T2 sequence (P14174 2-115 limits assumed): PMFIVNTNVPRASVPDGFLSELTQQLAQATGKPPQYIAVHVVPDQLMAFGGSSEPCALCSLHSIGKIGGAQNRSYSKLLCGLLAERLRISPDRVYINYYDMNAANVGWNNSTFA
Procedure: as §1, §2, §3

binding to oxMIF (oxMIF): specifically bind to oxMIF
B1: RAB4: anti-MIF antibody, IgG4 heavy chain SEQ ID NO: 6, light chain SEQ ID NO: 2; DSM 25112/25110 (antibody)
heavy: EVQLLESGGGLVQPGGSLRLSCAASGFTFSIYAMDWVRQAPGKGLEWVSGIVPSGGFTKYADSVKGRFTISRDNSKNTLYLQMNSLRAEDTAVYYCARVNVIAVAGTGYYYYGMDVWGQGTTVTVSSASTKGPSVFPLAPCSRSTSESTAALGCLVKDYFPEPVTVSWNSGALTSGVHTFPAVLQSSGLYSLSSVVTVPSSSLGTKTYTCNVDHKPSNTKVDKRV[here human IgG4 Fc with S228P (EU numbers) without letters]
light: DIQMTQSPGTLSLSPGERATLSCRASQGVSSSSLAWYQQKPGQAPRLLIYGTSSRATGIPDRFSGSASGTDFTLTISRLQPEDFAVYYCQQYGRSLTFGGGTKVEIKRTVAAPSVFIFPPSDEQLKSGTASVVCLLNNFYPREAKVQWKVDNALQSGNSQESVTEQDSKDSTYSLSSTLTLSKADYEKHKVYACEVTHQGLSSPVTKSFNRGEC
modifications: Heavy chain of RAB4; Light chain of RAB4
binding to redMIF (redMIF): do not bind; also recorded: incapable of binding to redMIF

binding to oxMIF (oxMIF): specifically bind to oxMIF
B2: RAB0: anti-MIF antibody, IgG4 heavy chain SEQ ID NO: 7, light chain SEQ ID NO: 3; DSM 25115/25114 (antibody)
heavy: B1 heavy with I31W, V52Y, F57R
light: B1 light
modifications: Heavy chain of RAB0; Light chain of RAB0
binding of recombinant MIF proteins to coated antibody (redMIF): none of the recombinant MIF proteins bound
binding to redMIF (redMIF): do not bind; also recorded: incapable of binding to redMIF

binding to redMIF (redMIF): incapable of binding to redMIF
binding to oxMIF (oxMIF): specifically bind to oxMIF
B3: RAM4: anti-MIF (anti-oxMIF) antibody; heavy chain SEQ ID NO: 13, light chain SEQ ID NO: 14; DSM 25862/25861 (antibody)
heavy: EVQLLESGGGLVQPGGSLRLSCAASGFTFSIYAMDWVRQAPGKGLEWVSGIVPSGGFTKYADSVKGRFTISRDNSKNTLYLQMNSLRAEDTAVYYCARVNVIAVAGTGYYYYGMDVWGQGTTVTVSSASTKGPSVFPLAPSSKSTSGGTAALGCLVKDYFPEPVTVSWNSGALTSGVHTFPAVLQSSGLYSLSSVVTVPSSSLGTQTYICNVNHKPSNTKVDKRV[here human IgG1 Fc without letters]
light: B1 light
modifications: RAM4hc; RAM4lc
notes: anti-MIF (anti-oxMIF) antibody; DSM 25862/25861

binding to oxMIF (oxMIF): specifically bind to oxMIF
B4: RAB9: anti-MIF antibody, IgG4 heavy chain SEQ ID NO: 5, light chain SEQ ID NO: 1; DSM 25113/25111 (antibody)
heavy: EVQLLESGGGLVQPGGSLRLSCAASGFTFSIYSMNWVRQAPGKGLEWVSSIGSSGGTTYYADSVKGRFTISRDNSKNTLYLQMNSLRAEDTAVYYCAGSQWLYGMDVWGQGTTVTVSSASTKGPSVFPLAPCSRSTSESTAALGCLVKDYFPEPVTVSWNSGALTSGVHTFPAVLQSSGLYSLSSVVTVPSSSLGTKTYTCNVDHKPSNTKVDKRV[here human IgG4 Fc with S228P (EU numbers) without letters]
light: DIQMTQSPSSLSASVGDRVTITCRSSQRIMTYLNWYQQKPGKAPKLLIFVASHSQSGVPSRFRGSGSETDFTLTISGLQPEDSATYYCQQSFWTPLTFGGGTKVEIKRTVAAPSVFIFPPSDEQLKSGTASVVCLLNNFYPREAKVQWKVDNALQSGNSQESVTEQDSKDSTYSLSSTLTLSKADYEKHKVYACEVTHQGLSSPVTKSFNRGEC
modifications: Heavy chain of RAB9; Light chain of RAB9
binding of recombinant MIF proteins to coated antibody (redMIF): none of the recombinant MIF proteins bound
binding to redMIF (redMIF): do not bind; also recorded: incapable of binding to redMIF

Positions count from the first letter of the chain named. Entries after “also recorded” stand apart in the source; their conditions may differ. One block for each molecule: values may come before it.
